# Laboratory results reported in the RNAGym collection of RNA variant scans (doi:10.7554/elife.90254).
# Read counts are not given, so values of variants with three or more changes are uncertain.
# B1: LINE1-full (parent)
# chain: UACGUAGGUGGUUUUCCCCUGAUAGUGCUAAGGGGGCCUGGAAGUUUGGACUGGGCAGAGCUCAACACAGCGUGGCAAAGUGGCUGUGGCUAGACUGCCUCUCUGGAUUCCUCGUCACUCAGCAGGGCAUCUCUGAGAGAAAUGCC
# Variants of: B1
# Test: self-cleavage, relative activity (ratio to wild type); higher = more cleavage; in vitro, sequencing; the parent is a self-cleaving ribozyme
row,Variant,self-cleavage
1,UACGUAGGUGGUUUUCCCCUGAUAGUGCUAAGGGGGCCUGGAAGUUUGGACUGGGCAGAGCUCAACACAGCGUGGCAUAGUGGCUGUGGCUAGACAGCCUCCCUGGAUUCCUCGUCACUCAGCAGGGAAUCUCUGAGAGAAAUGCC,0.05
2,UACGUAGGUGGUUUUCCCCUGAUAGAGCUAAGGGGGCCUGGAUGCUUGGACUGGGCAGAGCUCAACACAGCGUGGCAAAGUGGCUGUGGCUAGACUGCCUCUCUGGAUUCCUCGUCACUCAGCAGGGCAUCUCUGAGAGAAAUGCC,1.75
3,UACGUAGGUGGCUUUCCCCUGAUAGUGCUAAGGGGGCCUGGAAGUUUGGACUGGGCAGAGCUCAACACAGCGAGGCAUAGUGGCUGUGGCCAGACUGCCUCUCUGGAUUCCUCGUCACUCAGCAGGGCAUCUCUGAGAGAAAUGCC,0.56
4,UACGUAGGUGGUUUUCCCCUGAUAGUGCUAAGGGGGCCUGGAAGUUUGGACUGGGAAGAGCUCAACACAGCGUGGCAGAGUGGCUGUGGCUAGACUGCCUCUCUGGAUUCCUCGUCACUCAGCAGGGCUUCUCUGAGAGAAAUGCC,0.06
5,UACGUAGGUGGUUUUCCCCUGAAAGCACUAAGGGGGCCUGGAAGUUUGGACUGGGCAGAGCUCAACACAGCGUGGCAAAGUGGCUGAGGCUAGACUGCCUCUCUGGAUUCCUCGUCACUCAGCAGGGCAUCUCUGAGAGAAAUGCC,0.03
6,UACGUAGGUGGUUUUCCCCUGAUAGUGCUAAGGGGGCCCGGAAGUUUGGACUGGGCAGGGCUCCACACAGCGUGGCAAAGUGGCUGUGGCUAGACUGCCUCUCUGGAUUCCUCGUCACUCAGCAGGGCAUCUCUGAGAGAAAUGCC,0
7,UACGUAGGUGGUUUUCCCCUGAUAGUGCUAAGGGGGCCUGGAAGUUUGGACUGGGCAGAGCCCAACACAGCGUGGCAAGGUGGCUGUGGCUAGACUGCCUCUCUGGAUUCCUCGUCACUCAGCAGGGCAUCUCUGAGGGAAAUGCC,0.1
8,UACGUAGGUGGUUUUCCCCUGAUAGGGCUAAGGGGGCCUGGAAGUCUGGACUGGGCUGAGCUCAACACAGCGUGGCAAAGUGGCUGUGGCUAGACUGCCUCUCUGGAUUCCUCGUCACUCAGCAGGGCAUCUCUGGGAGAAAUGCC,0.3
9,UAUGUAGGUGGUUUUCCCCUGAUAGUGCUAAGGGGGCCUGGAAGUAUGGACUGGGCAGAGCUCAACACAGCGUGGCAAAGUGGCUGUGGCUAGACUGCCUCUCUGGAUUCCUCGUCACUCAGCAAGGCAUCUCUGAGAGAGAUGCC,1.33
10,UACGUAGGUGGUUUACCCCUGAUAGUGCUAAGGGGGCCUGGAAGUUUGGACUGGGCGGAGCUCAACACAGCGUGGCAAAGUGGCUGUGGCCAGACUGCCUCUCUGGAUUCUUCGUCACUCAGCAGGGCAUCUCCGAGAGAAAAGCC,1.58
11,UACGUAGGUGGUUUUCCCCUGAUAGUGCUAAGGGGGCCUGGAAGUUUGGACUGGGCAGAGCUCAACACAGCGUGGCAAAGUGGCUGUGGCUAGACCGCCUCUCUGGGUUCCUCGCCACUCAGCAGGGCAUCUCUGAGAGAAAUGCC,0.21
12,UACGUAGGUGGUUUUCCCCUGAUAGUGCUAAGGGGGCCUGGAAGUUCGGACUGGGCAGAGCUCAAUACAGCGUGGCAAUGUGGCUGUGGCUAGACUGCCUCUCUGGAUUCCUCGUCACUCAGCAGGGCAUCUCUGAGAGAAGUGCC,0.04
13,UACGUAGGAGGUUUUCCCCUGAUAGGGCUAAGGGGGCCUGGAAGUUUGGACUGGGCAGAGCUCAACACAGCGUGGCAAAGUGGCUGUGGCUAGACUGCCUCUCUGGAUUCCUCGUUACUCAGCAGGGCAUCUCUGAGAGUAAUGCC,0.94
14,UACGUAGGUGGUUUUCCCCUGAUAGUGCUAAGGGGGCCUGGAAGUUUGGACUGGGCAGAGCUCAACUCAGCGUGGCAAAGUGGCUGCGGCUAGACUGCCCCUCUGGAUUCCUCGUCACUCAGCAGUGCAUCUCUGAGAGAAAUGCC,0
15,UACGUAGGUGGUUUUCACCUGAUAGUGCUAAGGGGGCCUGGAAGUUAGGACUGGGCAGAGCCCAACACAGCGUGGCAAAGUGGCUGUGGCCAGACUGCCUCUCUGGAUUCCUCGCCACUCAGCAGGGCAUCUCUGAGAGAAAUGCC,0.6
16,UACGCAGGUGGUUUUCCCCUGAUAGUGCUAAGGGGGCCUGGAAGUUUGGACUGGGCAGAGCUCGACACAGCGUGGCAAAGUGGCUGUGGCUAGACUGCCUCUCUGGAUUCCUCGUCACUCAGUAGGGCAUCUCUGAGAGAAAUGCC,0.09
17,UACGUAGGUGGUUUUCCCCCGAUAGUGCUAAGGGGGCCUGGAAGUUUGGACUGGGCAGAGCUCAACACAGCGUGGCGAAGUGGCUGUGGCUAGACUGCCUCUCUGGAUUCCUCGUCACUCAGCAGGGCAUCUCUGAGAGAGAUGCC,2.24
18,UACGUAGGUGGAUUUCCCCUGAUAGUGCUAAGGGGGCCUGGAAGUUUGGACUGGGCAGAGCUCAACACAGCGUGGCAAAGUGGCAGUGGCUAGACUGCCUCUCUGGAUUCCUCGUCACUCCGCAGGGCAUCUCUGAGAGAAAUGCC,0.23
19,UACGUAGGUGGUUUUCCCCUGAUAGUGCUAAGGGGGCCUGGAAGUUCGGACUGGGCUGAGCUCGACACAGCGUGGCAAAGUGGCUGUGGCUAGACUGCCUCUCUGGAUUCCUCGUCACUCAGCAGGGCAUCUCUGAGAGAAAUGCC,0
20,UACGUAGGUGGUUUCCCCCUGAUAGUGCUAAGGGGGCCUGGAAGUUUGGACUGGGCAGAGCUCAACACAGCGUGGCAAAGUGGCUGUGGCUAGACGGCCCCUCUGGAUUCCUCGUCACUCAGCAGGGCAUCUCUGAGAGAAAUGCC,0.19

row,Variant,self-cleavage
1,UACGUAGGUGGUUUUCCCCUGAUAGUGCUAAGGGGGCCUGGAAGUUUGGACUGGGCCGAGCUCAACACAGCGUGGCAAAGUGGCUGUGGCUAGACUGCCUCUCUGGAUCCCUCGUCGCUCAGCAGGGCAUCUCUGAGAGAAAUGCC,0
2,UACGUAGGUGGUUUUCCCCUGAUAGUGCUAAGGGGGCCUGGAAGUUUGGACUGGGCAGAGCUCAACGCGGCGUGGUAAAGUGGCUGUGGCUAGACUGCCUCUCUGGAUUCCUCGUCACUCAGCAGUGCAUCUCUGAAAGAAAUGCC,0.24
3,UACGUAGGUGGUUUUCCCCUGAUAGUGCUAAGAGGGCCUGGGAGUUUGGACUGGGCAGAGCUCAGCACAGCGUGGCAAAGUGGCUGUGGCUAUACUGCCUCUCUGGAUUCCUCGUCACUCAGCAGGGCACCUCUGAGAGAAAUGCC,0.03
4,UACGCAGGUGGUUUUCCCUUGAUAGUGCUAAGGGGGCCUGGAAGUUUGGACUGGGCAGAGCUCAACACAGCGUGGCAAAGUGGCUGUGGCUAGACUGCCUCUCUGGAUUCCUCGGCACUCAGCAAGGCAUCUCUGAGAGGGAUGCC,0.89
5,UACGCAGGUGGUUUUCCCCUGACAGUGCUAAGGGGGCCUGGAAGUUUGGACUGGGCAGAGCUCAACAUAGCGUGGCAAAGUGGCUGUGGCUAGACUGCCUCCCUGGAUUCCUCGUCACUCAGCAGGGCAUCUCUGAGAGAAAUGCC,0.31
6,UACGUAGGUGGUUUUCCCCUGAUAGUGCUGAGGGGGCCUGGAAGUUUGGACUGGGCAGAGCUCAACACAGCGUGGCAAGGUGGCUGUGGCUAGACUGCCUCUCUGGAUUCCUCGUCACUCGGCAGGGCAUCUCUGGGAGAAAUGCC,1.15
7,UACGUAGGAGGUUUUCCCCUGAUAGUGCUAAGGGGGCCUGGAAGUUUGGACUGGGCAGAGCUCAACACAGCGUGGCAGAGUGGCUGUGGCUAGACUGCCUCUCUGGAUUCCUCGUCACUCAGCAGGGCAUCUCCGAGAGAAAUGCC,0.56
8,UACGUAGGUGGUCUUCCCCUGAUAGUGCUAAGGGGGCCUGGAAGUAUGGACUGGGCAGAGCUCAACACAGCGUGGCAAAGUGGCUGUGGCUAGACUGCCUCUCUGGAUUCCUCGUCACUCAGCAGGGCAUCUCCGAGAGAAGUGCC,1.76
9,UACGUAGGUGGUUUUCCCCUGAUAGUGCUAAGGGGGCCUGGAAGUUUGGACUGAGCAGAGCUCAACACAGCGUGGCAAAGUGGCAGUGGCUAGACUGCCUCUCUGGAUUCCUCGUCACUCAGCAGGGCAUCUCUGAGAGAAAUGGC,0.03
10,UACGUAGGUGGUUUUCCCCUGAUAGUGCUAAGGGGGCCUGGAAGUUUGGACUGGGCGGAGCUCAACACAGCGUGGCAAAGUGGCUGUGGCUAGACUGCCUCUCUGGAUUCCUCGUCACUCAGCAGGGCAUCGCUGAGAGUAAUGCC,1.47
11,UGCGUAGGUGGUUUUCCCCUGAUAGUGCUAAGGUGGCCUGGAAGCUUGGACUGGGCAGAGCACAACACAGCGUGGUAAAGUGGCUGUGGCUAGACUGCCUCUCUGGAUCCCUCGUCACUCAGCUGGGCAUCUCAGAGAGACAUGCC,0.1
12,UACGUAGGUGGUCUUCCCCUGAUAGUGCUAAGGGGGCCUGGAAGUUUGGACUGGGCAGAGCUCGACACAGCGUGGCAAAGAGGCUGUGGCUAGACUGCCUCUCUGGAUUCCUCGACACUCAGCAGGGCAUCUCUGAGAGGAAUGCC,0.44
13,UACGUAGGUGGUUUUCUCCUGAUAGUGCUAAGGGGGCCUGGAAGUUUGGACUGGGCAGAGCUCAACACAGCGUGGCAAGGUGGCUGUGGCUGGACUGCCUCUCUGGAUUCCUCGUCACUCAGCAGGGCAUCUCUGAGAGAAAUGCC,0
14,UACGUGGGUGGUUUCCCCCUGAUAGUGCUAAGGGGGCCUGGAAGUUUGGACUGGGCAGAGCUCAAAACAGCGUGGCAAAGUGGCUGUGGCUAGACUGCCACUCUGGAUUCCUCGUCACUCAGCAGGGCAUCUCUGAGAGAAAUGCC,0
15,UACGUAGGUGGUUUUCCCCUGAUAGUGCUAAGGGGGCCUGGGAGUUUGGACUGGGCUGAGCUCAUCACAGCGUGGCAAAGUGGCUGUGGCUAGACUGCCUCUCUGGAUUCCUCGUCACUCAGCAGGGCAUCUCUGAGAGAAAUGCC,0.06
16,UACGUAGGUGGUUUUCCCCUGAUAGUGCUAAGGGGGCCUGGAAGUUUGGACCGGGCAGAGCUCAACACAGCGUGGCAAAGUGGCUGUGGCUAGACAGCCUCUCUGGAUUCCUCGUCACACAGCAGGGCAUCUCUGAGGGAAAUGCC,0
17,UACGUAGGUGGUUCUCCCCUGAUAGCGCUAAGGGGGCCUGGAAGUUUGGACUGGGCAGAGCUCAACACAGCGUGGUAAAGUGGCUGUGGCUAGACUGCCUCUCUGGAUUCCUCGUCCCUCAGCAGGGCAUCUCUGAGAGAGAUGCC,2.77
18,UACGUAGGAGGUUUUCCCCUGAUAGUGCUAAGGGGGCCUGGAAGUUUGGACUGGGCUGAGCUCAACGCAGCGUGGCAAAGUGGCUGUGGCUAGACUGCCUCUCUGGAUUCCUCGUCACUCGGCAGGGCAUCUCUGAGAGAAAUGCC,0.77
19,UACGUAGGUGGUUUUCCCCUGAUAGUGCUAAGGGGGCCUGGAAGUCUGGACUGGGUAGAGCUCAACACAGCGUGGCAAAGUGGCUGUGGCUAGACUGCCUCACUGGAUUCCUCGUCACUCAGCAGGGCAUCUCUGAGAGAAAUGCC,0.09
